From paper PMC12136788
Substitutions are numbered along the chain they refer to. Some of the results follow.

T1: UNK ZnF1-3 (human, UniProt Q9C0B0 31-174)
T1 sequence: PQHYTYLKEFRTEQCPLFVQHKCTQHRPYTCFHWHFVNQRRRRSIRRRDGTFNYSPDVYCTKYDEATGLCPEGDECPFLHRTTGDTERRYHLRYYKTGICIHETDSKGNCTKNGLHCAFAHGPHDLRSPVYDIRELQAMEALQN

B1: chr9:109937708:109937709:+_ENSMUSG00000032479_ENSMUST00000165876|mus_mus|FALSE|FALSE (ssRNA)
RNA: GGGAGUUCUACAGUCCGACGAUCCGGAGACAUGUCCUUGACUGAGGUUACCUCUUCUUCUGAAAGUGGAGUCACAUUGUUAAACUCAGCCACCUUUGUUUCUGGAAGUAUAACCACGUCCUUGCCCAGAGUCACUUCUGAUUCCAACAGAGGAUUGAGCAUCA
B2: chr10:33190432:33190433:-_ENSG00000150093_ENST00000302278|hu_mus|hu_hu_hu_mus_True|78_88 (ssRNA)
RNA: GGGAGUUCUACAGUCCGACGAUCUACAUUUUCCAAACCUGCAUGUGAGUAAAACCAUGGCAAUAUUGCCCCAAAACUACCCUACUGUGACUAAGAUGCUGCUGCUGUGAGCUUGGUGUUGCAAAAUCCGCCUGAGUAGGAUUCCAACAGAGGAUUGAGCAUCA
B3: chr17:65740002:65740003:+_ENSG00000130935_ENST00000581375|hu_hu|hu_hu_hu_mus_False|1_1 (ssRNA)
RNA: GGGAGUUCUACAGUCCGACGAUCAACAAAUCUUUCUUCCCUGGACGAACAGGAAGAUUCAUAUUAAAAAAAAUAUAUAUCCAUCAAGUUAGGUGUGGUGGCCACACCUUUACUCCCAGCACUUUGGGAGGUGGAUCCUCUAUUCAACAGAGGAUUGAGCAUCA
B4: chr10:112654219:112654220:+_ENSG00000150593_ENST00000280154|hu_hu|motif|central (ssRNA)
RNA: GGGAGUUCUACAGUCCGACGAUCCCAAAGGGACUUUAAUAAAUCCAAAAUCAUCUUAAAUGUACUUUCUCCAGUUGACUCGGAAACCAUUAUAAUAGCUUCAUAUACAAGCUCAUGGUGAAAAUGAGGUACUUCCAGUUCCUUCAACAGAGGAUUGAGCAUCA
B5: chr4:13604834:13604835:-_ENSG00000038219_ENST00000040738|hu_mus|FALSE|FALSE (ssRNA)
RNA: GGGAGUUCUACAGUCCGACGAUCCCUAGAGAGUGCUUUCCGACUCACUUCAGAGUCUACACUUACUUCCUGGGCUCCUCGCUGAAUUGGCUCUCUUUCCCUAGGAGCUGCUUUUGAUGGGUUACCUUGGCUAUGUACUUUCUUCAACAGAGGAUUGAGCAUCA
B6: chr15:37385894:37385895:-_ENSG00000134138_ENST00000382766|hu_hu|FALSE|FALSE (ssRNA)
RNA: GGGAGUUCUACAGUCCGACGAUCGCUGCCGUCUCUUUCAUCAAUGACGAGGUCGAUGGGCAUUUUCCCCUUCAAACAGCUAAUGUAUCGGUGGCAGAAGUUAUCGCACAGUUCGUGGACCUUUUCUAACUCCAAAAGAUGAAACAACAGAGGAUUGAGCAUCA
B7: 97535920_97536194_1999_3pUTR_ENSMUSG00000038437_ENSMUST00000044730|mouse|control|control (ssRNA)
RNA: GGGAGUUCUACAGUCCGACGAUCGUGUGGCUGCUCUCCGCUUGGGUGAGGAGGGGGUUAACAGUGCCCAUGGGGGUUCCAAAGAUGUGGGAUGAAGGGAGGCUGAAGGUUGAGCCAGCCAGAGAAAACACCUGAGUGGUGGAGCAACAGAGGAUUGAGCAUCA
B8: chr5:145543945:145543946:-_ENSG00000133706_ENST00000545646|hu_hu|hu_hu_hu_mus_True|18_68 (ssRNA)
RNA: GGGAGUUCUACAGUCCGACGAUCCUGAACGGCCAGUGGUGGGAAAUAAUCAAGCCAGUGCUCUGCUUCAGAAAAUUUCACUAUGUCGUCAUCAGAGAGCCCAAGGGAUUUCAUAAUGCCCCACUGGUACUUAGAAGAUCCUGCCAACAGAGGAUUGAGCAUCA
B9: chr5:145543945:145543946:-_ENSG00000133706_ENST00000545646|hu_hu|hu_hu_hu_mus_True|18_78 (ssRNA)
RNA: B8 RNA with G57A, C60U, U75C
B10: chr4:95690885:95690886:+_ENSMUSG00000028572_ENSMUST00000156910|mus_mus|mus_mus_mus_hu_False|68_88 (ssRNA)
RNA: GGGAGUUCUACAGUCCGACGAUCUUUAGAAAAUGUUAAAUACCAUGAGCAUGCUAAUUCAAAGGCUAGUCUUAUUUUACCAGAAGUCACAGGCAAGCAGACACUACAAGAAUAUAUGAAAAUGAAACUCAACAAUAUAACUGUCAACAGAGGAUUGAGCAUCA
B11: chr4:48850422:48850423:+_ENSG00000109180_ENST00000264312|hu_mus|motif|central (ssRNA)
RNA: GGGAGUUCUACAGUCCGACGAUCAGCGAAUAGAAGUUUAGGAAUUGAACCAUAUUUUGGAUGACUUGACAGGAUUCCUUUACGGAUUAAUCCUUGAGUAAUCAGCAUACUUGUGGCAGCCAACGGCACAGAUCUGAACCAGAACAACAGAGGAUUGAGCAUCA
B12: chr7:141450121:141450122:+_ENSG00000106028_ENST00000265304|hu_hu|motif|central (ssRNA)
RNA: GGGAGUUCUACAGUCCGACGAUCUCAUCCUUUCUACUCCUUCUCUUUCGUCUGGUCACUCAGAAAUAUAAUAUUAUCAGCGGUGAUUGUUGUUGCUUGUCGCCUCACAUUAUUUUUAUCCAUGUAUUCACCAUAGUCUAUUUUCAACAGAGGAUUGAGCAUCA
B13: chr2:202488911:202488912:-_ENSG00000155755_ENST00000286196|hu_mus|hu_hu_hu_mus_False|68_88 (ssRNA)
RNA: GGGAGUUCUACAGUCCGACGAUCAUUGAAACAUUUUUCAUAAUCUCAGAGAUGUUUUCAGCAUUAUUAAUCAAAAACUCAAUUGUAAAUACAUGUAUCUUAUAAAAAUACACUUAAAAACACGAGUGGGGAGCGCAGGCGCCACAACAGAGGAUUGAGCAUCA
B14: chr2:64323713:64323714:-_ENSG00000197329_ENST00000358912|hu_mus|motif|central (ssRNA)
RNA: GGGAGUUCUACAGUCCGACGAUCGCUUUGUACUGACUGCGUGUCGGAAUUACUCUGACUUCCAGGAACGGUGUCAGUUACGGCAAAAUCAAUAGGACUUUCAGUUGACCGACCAAUCUGAAACAUAUCAGUGUUGCUGUCAUGCAACAGAGGAUUGAGCAUCA

Molecular target: T1, UNK ZnF1-3
Assay: nsRBNS (natural sequence RNA bind-n-seq); RBNS binding buffer (assumed for nsRBNS): 25 mM Tris pH 7.5, 150 mM KCl, 3 mM MgCl2, 0.01% Triton X-100, 500 ug/ml BSA, 20 U/ml SUPERase-In, 4 C; UNK is unkempt and MSI1 is Musashi-1; names of the RNAs are library labels; protein concentration not given here; high values mean tight binding

| Binder | binding signal [enrichment R] |
| --- | --- |
| B1 | 0.501 |
| B2 | 0.997 |
| B3 | 1.12 |
| B4 | 1.12 |
| B5 | 0.399 |
| B6 | 0.858 |
| B7 | 2.47 |
| B8 | 1.26 |
| B9 | 1.3 |
| B10 | 1.64 |
| B11 | 1.24 |
| B12 | 0.467 |
| B13 | 0.769 |
| B14 | 0.461 |
